# About 2,200 (0.71%) of roughly 310,000 compounds showed an effect of 50% or more. The effect is printed as a negative number. The list shows a part of the results.
# Target: human ether-à-go-go-related gene (hERG) potassium channel (human, UniProt Q12809)
# Test: primary screen, population patch clamp on CHO cells stably expressing hERG
# Chain of human ether-à-go-go-related gene (hERG) potassium channel (Q12809 whole entry, looked up): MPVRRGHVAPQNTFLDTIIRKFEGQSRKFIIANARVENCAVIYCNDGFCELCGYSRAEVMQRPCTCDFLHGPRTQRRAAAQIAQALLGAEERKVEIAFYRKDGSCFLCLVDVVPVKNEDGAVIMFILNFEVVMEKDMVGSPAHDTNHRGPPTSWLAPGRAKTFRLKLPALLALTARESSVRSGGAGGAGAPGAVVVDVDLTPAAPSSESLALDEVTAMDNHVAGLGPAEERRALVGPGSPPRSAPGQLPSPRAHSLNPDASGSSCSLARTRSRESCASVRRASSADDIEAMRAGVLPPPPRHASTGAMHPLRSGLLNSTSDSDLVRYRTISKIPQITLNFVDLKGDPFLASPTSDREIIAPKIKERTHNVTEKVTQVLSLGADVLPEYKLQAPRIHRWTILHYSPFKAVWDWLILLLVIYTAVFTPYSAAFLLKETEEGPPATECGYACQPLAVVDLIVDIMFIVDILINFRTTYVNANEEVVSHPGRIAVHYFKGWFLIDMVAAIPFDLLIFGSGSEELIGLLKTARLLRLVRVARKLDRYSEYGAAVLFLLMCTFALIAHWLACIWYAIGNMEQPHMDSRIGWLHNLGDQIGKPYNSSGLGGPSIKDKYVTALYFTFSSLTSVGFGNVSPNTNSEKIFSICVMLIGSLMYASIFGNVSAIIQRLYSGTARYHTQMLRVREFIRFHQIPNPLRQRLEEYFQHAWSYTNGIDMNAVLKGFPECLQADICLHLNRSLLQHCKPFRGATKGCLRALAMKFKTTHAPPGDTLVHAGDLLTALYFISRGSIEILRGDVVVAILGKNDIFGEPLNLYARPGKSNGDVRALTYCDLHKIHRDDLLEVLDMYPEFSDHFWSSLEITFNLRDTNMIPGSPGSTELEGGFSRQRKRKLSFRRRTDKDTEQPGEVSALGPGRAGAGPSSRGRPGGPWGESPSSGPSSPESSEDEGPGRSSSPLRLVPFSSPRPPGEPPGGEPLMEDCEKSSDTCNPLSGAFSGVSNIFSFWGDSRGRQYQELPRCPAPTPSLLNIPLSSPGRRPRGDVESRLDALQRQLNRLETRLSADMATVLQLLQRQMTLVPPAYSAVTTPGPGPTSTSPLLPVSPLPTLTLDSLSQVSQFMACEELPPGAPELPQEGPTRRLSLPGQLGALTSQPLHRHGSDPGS
row,SMILES,"hERG current change (%, negative = inhibition) at 1uM [%]"
1,COc1ccc(-c2nn(CCC(=O)O)cc2/C=C2\SC(N)=NC2=O)cc1,7.09
2,CC(C)N(Cc1ccccc1)C(=S)Nc1ccccc1F,13.1
3,CCSc1ncc(Cl)c(C(=O)Nc2ccccc2Cl)n1,13.3
4,CCOC(=O)c1c(C)[nH]c(C)c1S(=O)(=O)N(C)CC(=O)Nc1cccc(C)c1,10.4
5,Cc1ccc(/C=N/Nc2ncnc3nc[nH]c23)cc1,-7.53
6,CC(C(=O)NC1CCCC1)N1C(=O)c2cccc3cccc1c23 (stereo not shown),9.89
7,O=C(N/N=C/C1CC=CCC1)c1cc2ccccc2cc1O (stereo not shown),9.64
8,Cc1ccc(S(=O)(=O)N2CCCCC2)cc1C(=O)N1CCCCCC1,0.463
9,CCSc1nnc(-c2ccc(S(=O)(=O)N3CCOCC3)cc2)n1CC1CCCO1 (stereo not shown),8.74
10,CS(=O)(=O)c1ccc(Cl)c(C(=O)NCC2CCCCC2)c1,5.93
11,Cc1nc(NC(=O)c2cc(-n3cnnc3)ccc2Cl)ccc1Br,-3.11
12,COc1cccc(/C=C/C(=O)NNC(=O)c2cc(C)oc2C)c1,12.3
13,O=c1[nH]c2ccccc2nc1NCc1ccccc1,12.3
14,Cc1c(C(=O)Nc2nc3ccccc3[nH]2)oc2c(Cl)cccc12,15.5
15,COc1ccccc1/C=C/C=C1\Oc2c(ccc(O)c2CN(C)C)C1=O,-0.312
16,O=[N+]([O-])c1ccc(S(=O)(=O)NCC2CC3CCC2C3)cc1 (stereo not shown),7.7
17,CCOc1ccc(CCNC(=O)CS(=O)Cc2nc(-c3ccc(OC)cc3)oc2C)cc1OCC (stereo not shown),11.8
18,O=C(COc1ccc(Br)cc1Cl)NC1CCN(Cc2ccccc2)CC1,-16.4
19,O=c1cc(-c2ccccc2Cl)oc2ccc([N+](=O)[O-])c(O)c12,12.9
20,Cc1[nH]n(-c2ccccc2)c(=O)c1C(C[N+](=O)[O-])c1ccccc1Cl (stereo not shown),16.6
21,O=C1CCc2cc(S(=O)(=O)Nc3ccccc3F)ccc2N1,4.61
22,CCC1(CC)NC(=O)N(CC(=O)OCn2nnc3ccccc3c2=O)C1=O,12.4
23,COC(=O)COc1cc(=O)oc2ccc(NS(=O)(=O)c3ccccc3)cc12,14
24,O=C(NC(Cc1ccccc1)C(=O)O)c1ccco1 (stereo not shown),13
25,COS(=O)(=O)[O-].Cc1ccc(S(=O)(=O)Cc2sc3ccccc3[n+]2C)cc1,7.62

# Source: publication PMC4336329 (PLoS ONE, 2015)
